The values below come from PubChem BioAssay AID463173 (ICCB-Longwood Screening Facility, Harvard Medical School, 2010).

The whole screen tested about 52,000 compounds, of which about 4,300 (8.3%) were called active. Rule as the data show it: active = survival mostly below about 52% (no sharp cut-off); inactive = mostly above about 56%. The list shows a part of the results.

This assay concerns DeltatarO mutant. The experiment in a line: growth inhibition of S. aureus wild type versus tarO mutant, primary screen, teichoic acid synthesis inhibitors, RN4220, OD600 (AID 463173). The conditions noted are these: OD600, 18 h, hits give low values, screened at 18.75 µg/mL (by protocol).
As for `CCOc1ccc(CNC(=O)CCc2c(C)nn(-c3ccc(N4CCCCC4)nn3)c2C)cc1`, the survival is inactive: 55%.
Turning to `CCCC1C2CN(Cc3ccccc3)CC=C2C(C#N)=C(N)C1(C#N)C#N` (stereo not given), the survival is inactive: 67%.
The same measure for `CCOc1ccc(CCNC(=O)c2c(C)oc3ncn(CC(C)C)c(=O)c23)cc1OCC`: inactive: 78%; for `CC(=O)N1CCc2c(sc3c2c(=O)n(-c2ccccc2)c(=O)n3CC(=O)Nc2cc(C)cc(C)c2)C1`: inactive: 68%; for `CCCCCc1ccc(-c2ccc(Br)cc2)nc1`: active: -4%.
The same measure for `O=C(NCc1ccccc1F)C(=O)NCC(c1ccc2c(c1)OCO2)N1CCOCC1` (stereo not given): inactive: 79%.
With `CC1C(C#N)=C(N)OC2=C1C(=O)CCC2` (stereo not given) the figure was inactive: 105%.
On to `CC1CC(c2ccccc2)n2nc(N)nc2N1` (stereo not given), for which the survival was inactive: 101%.
Consider `CSc1ccccc1-c1nnc(NC(=O)c2ccc3c(c2)OCCO3)o1`, for which the survival is inactive: 119%.
For the molecule `O=C(NC1CCCCC1)N1CCc2ccccc2C1`, the survival is inactive: 77%.
The same measure for `Cc1c(C(=O)N2CCCCCC2)c(S(=O)(=O)NCc2ccccc2)c(C)n1C`: inactive: 77%; for `CSc1ccc(CCNC(=O)c2cc(C)nc3c2c(C)nn3-c2cccc(F)c2)cc1`: inactive: 101%.
The same measure for `COc1ccccc1N1CCN(c2ccc(=O)n(CC(=O)NCc3ccc(F)cc3)n2)CC1`: inactive: 102%; for `COc1ccc(NC(=O)c2cc3cc(C)ccc3[nH]2)cc1`: inactive: 100%; for `CCOc1ccccc1NC(=O)CSc1nc2c(oc3ccccc32)c(=O)n1-c1ccc(F)cc1`: inactive: 74%.
The same measure for `Cc1nc2ccccc2c(=O)n1CC(=O)N(C1CCCCC1)C1CCCCC1`: inactive: 87%; for `O=S1(=O)CCC(NNC(=S)Nc2ccccc2)C1` (stereo not given): inactive: 100%; for `COc1cccc(CSc2nc3n(n2)C(c2ccc(C(=O)O)cc2)C(C(=O)Nc2ccccc2)=C(C)N3)c1` (stereo not given): inactive: 95%.
`O=C(OCc1cc(=O)n2nc(-c3cccs3)sc2n1)c1ccccc1Cl`: the survival is inactive: 72%.
On to `Cc1cc2c(cc1S(=O)(=O)Nc1cccc(Cl)c1C)n(C)c(=O)c(=O)n2C`, for which the survival is inactive: 76%.
Take `Cc1cc(C)cc(N2C(=O)CSC23C(=O)N(Cc2c(F)cccc2Cl)c2ccccc23)c1` (stereo not given): the survival is inactive: 90%.
As for `CCOC(=O)c1cc(-c2ccccc2)n(CCC(=O)Nc2ccccc2CC)c1C`, the survival was inactive: 69%.
With `Cc1cc(C)c(OCC(=O)O)c(Cl)c1` the figure was inactive: 99%; with `COc1ccc(C2CC(=O)N(Cc3ccc(C)cc3)c3c2c(C)nn3-c2nc(C)cc(C)n2)c(OC)c1` (stereo not given), inactive: 103%; with `Cc1cccc2nc(-c3ccccn3)c(Nc3ccc(F)cc3)n12`, active: -9%.
Take `O=C(Nc1ccc(F)c(Cl)c1)Nc1c[nH]c(=O)[nH]c1=O`: the survival was inactive: 78%.
On to `O=C(CSc1nc(=O)n(CCN2CCOCC2)c2c1CCC2)Nc1ccc(Cl)c(Cl)c1`, for which the survival is inactive: 74%.
The same measure for `O=C(CN1CCC(n2nnc3cc(C(F)(F)F)ccc32)CC1)N1CCc2ccccc21`: inactive: 93%.
The same measure for `CC(CNC(=O)c1cnn(-c2ccc(F)cc2)c1-n1cccc1)c1ccccc1` (stereo not given): inactive: 87%; for `COCCN(C(=O)c1ccco1)c1nnc(-c2ccc(F)cc2)s1`: inactive: 58%.
Regarding `CC(=O)Nc1ccccc1-c1nc2ccccc2n(CC(=O)Nc2cccc(C)c2C)c1=O`, the survival was inactive: 117%.
With `O=C(Nc1nccs1)c1ccc(N2C(=O)CCC2=O)cc1` the figure was inactive: 93%; with `Cc1ccc2nc(SCc3nc(-c4ccc(Cl)cc4)no3)[nH]c2c1`, active: 28%; with `CC1=C(C(=O)Nc2cccnc2)C(c2ccc(C)cc2)n2nc(SCc3ccccc3F)nc2N1` (stereo not given), inactive: 62%.
Regarding `COc1cc2c(cc1OC)n(CC(=O)c1cc(C)ccc1C)c(=O)n1nc(CCn3nc(C)cc3C)nc21`, the survival is inactive: 81%.
As for `Cc1cc(Nc2ccc(F)cc2F)nc(-n2nc(C)cc2C)n1`, the survival was inactive: 80%.
The same measure for `CCc1cc2c(cc3c(=O)n(CCCC(=O)NCc4cccc(Br)c4)ncn32)s1`: inactive: 79%; for `Cc1ccc(NC(=O)C(CC(C)C)N2Cc3ccccc3C2=O)cc1F` (stereo not given): active: -5%; for `CNS(=O)(=O)c1cn(CC(=O)N2CCN(c3ccc(C(C)=O)cc3)CC2)cc1S(=O)(=O)NC`: active: 37%.
Turning to `CCCCC12CN3CC(C)(CN(C1)C3c1c[nH]c3ccccc13)C2=O` (stereo not given), the survival was inactive: 76%.
The same measure for `CCCCC(CC)CNC(=O)Cc1ccc(-n2c(=O)[nH]c3ccccc3c2=O)cc1` (stereo not given): inactive: 85%; for `Cc1cccc(CSc2nc3c([nH]c4ccccc43)c(=O)n2C)c1`: inactive: 92%; for `COc1cc(OC)c(OC)cc1CNCc1ccco1`: inactive: 114%.
The same measure for `CC(=O)N1c2ccc(S(=O)(=O)Nc3ccc(C)c(Cl)c3)cc2CC1C` (stereo not given): inactive: 86%.
For `COc1ccc(N2CCN(S(=O)(=O)c3ccc(-c4coc(C)n4)cc3)CC2)cc1`, the survival was inactive: 101%.
Regarding `C/C(CC(O)c1ccc2ccccc2n1)=N/O` (stereo not given), the survival is inactive: 54%.
With `CCOc1ccc(CC(=O)Nc2c(C(=O)c3ccccc3)oc3ccc(Cl)cc23)cc1OCC` the figure was inactive: 48%; with `CC(C)CCNc1nc(Nc2ccccc2)c2cnn(C)c2n1`, inactive: 81%.
With `O=C(Cc1ccc(Cl)cc1)NCCc1csc2nc(-c3ccccc3F)nn12` the figure was inactive: 84%; with `Cc1cc(F)ccc1Nc1nc2ccc(Cl)cc2n2cnnc12`, inactive: 90%; with `CCOC(=O)c1ccc(-n2c(CCC(=O)O)ccc2-c2ccccc2)cc1O`, active: 43%.
The same measure for `Cc1nnc(NC(=O)CSc2nccn2Cc2ccccc2)s1`: inactive: 74%; for `CSCCC(NS(=O)(=O)c1ccc2c(c1)oc(=O)n2C)C(=O)NCc1ccc(Cl)cc1` (stereo not given): inactive: 92%.
With `CCCn1c(N2CCN(CC(=O)NCc3cccs3)CC2)nc2ccccc21`, the survival was inactive: 99%.
The same measure for `Cc1ccc(C)c(NC(=O)c2nc(S(=O)(=O)Cc3ccc(F)cc3)ncc2Cl)c1`: inactive: 99%.
With `CCc1ccccc1S(=O)(=O)Cc1ccc(C(=O)NCCc2ccc(Cl)cc2)o1` the figure was inactive: 76%; with `O=C(Nc1cc(-c2cccc(Cl)c2)nn1-c1ccccc1)c1ccccc1F`, inactive: 83%; with `CCOC(=O)c1cccc(N(C(=O)Cn2nnc3ccccc32)C(C(=O)NCC2CCCO2)c2nc3ccccc3n2C)c1` (stereo not given), inactive: 66%.
With `CCS(=O)(=O)c1ncc(N(Cc2ccccc2)Cc2ccco2)c(C(=O)Nc2ccccc2C)n1` the figure was active: 45%; with `CNc1ccc(-c2nc(-c3ccncc3)no2)cc1[N+](=O)[O-]`, inactive: 108%.
As to `COC(=O)c1ccccc1NC(=O)CSc1nc2ccccc2nc1Cc1ccc(F)cc1`, the survival was inactive: 67%.
The same measure for `O=C(NC1CCCCC1)c1ccc2c(c1)N(Cc1cccc(Cl)c1)C(=O)c1ccccc1S2(=O)=O`: inactive: 69%.
The same measure for `CC(CC(=O)Nc1ccc(F)cc1)S(=O)(=O)c1cc2c3c(c1)CCN3C(=O)CC2` (stereo not given): inactive: 71%; for `CCOC(=O)C1=C(CN2c3ccccc3CC2C)NC(=O)NC1c1ccccc1` (stereo not given): inactive: 96%; for `COc1ccc(N2CCN(C(=O)C(CC(C)C)NS(=O)(=O)c3ccc4nc(C)sc4c3)CC2)cc1` (stereo not given): inactive: 77%.
With `O=C(Cn1nnc2ccccc2c1=O)NC1CCCCC1` the figure was inactive: 89%; with `Cc1cccc(NC(=O)Cn2c(=O)n(CC3CCC(C(=O)NCCc4ccccc4)CC3)c(=O)c3ccccc32)c1` (stereo not given), inactive: 74%.
With `Fc1ccc(-c2cc(-c3ccc(F)cc3)c3c(n2)-c2cc(F)ccc2OC3)cc1`, the survival was inactive: 89%.
Regarding `Fc1ccc(Nc2nc(-c3cccc(Cl)c3)c3c(n2)-c2ccccc2OC3)c(F)c1`, the survival was inactive: 95%.
With `CCOC(=O)c1c(NC(=O)c2cc(-c3cccc(Cl)c3)on2)sc(C)c1C`, the survival was active: 56%.
With `CCc1ccc(NC(=O)CSc2nc(-c3ccc(C)cc3)nc3c2Cc2c(CO)cnc(C)c2O3)cc1` the figure was inactive: 112%; with `CCOc1ccc2nc(N3CCCC(C(=O)Nc4ccccc4CC)C3)sc2c1` (stereo not given), inactive: 95%.
Take `c1ccc(Sc2ncnc3c2oc2ccccc23)cc1`: the survival is inactive: 60%.
With `Cc1ccccc1-c1nnc(C2CCC(c3ccccc3)CC2)o1` (stereo not given) the figure was inactive: 92%; with `CC1Oc2ccccc2N(CC(=O)c2ccccc2)C1=O` (stereo not given), inactive: 96%; with `COc1ccc(CNC(=O)CCc2c(C)nc3cc(-c4ccc(OC)cc4OC)nn3c2C)cc1`, inactive: 121%.
The same measure for `CCOc1ccc(C(=O)Nc2ccc(OCc3cc(=O)n4cccc(C)c4n3)cc2)cc1`: inactive: 55%; for `CC(=O)NCCNC(=O)CCCc1nnc2n(CC(C)C)c(=O)c3sccc3n12`: inactive: 96%; for `COc1ccc(-c2cc(-c3nc(-c4cc(OC)c(OC)c(OC)c4)no3)[nH]n2)c(OC)c1`: inactive: 102%.
Take `CCc1nnc2c3ccccc3nc(Nc3cc(C)cc(C)c3)n12`: the survival was active: 26%.
The same measure for `COc1ccc(S(=O)(=O)NCc2cccn2Cc2cc(C)ccc2C)cc1OC`: inactive: 84%; for `COc1cccc(NC(=O)Cn2c(=O)n(Cc3ccc(F)cc3)c(=O)c3sc4ccccc4c32)c1`: inactive: 73%; for `CCc1ccc(-c2nc3cc(NC(=O)c4ccc(C)c(C)c4)ccc3o2)cc1`: inactive: 151%.
For the molecule `COc1ccc(S(=O)(=O)n2nc(-c3ccco3)nc2NCc2ccc(C(C)C)cc2)cc1`, the survival was inactive: 81%.
With `CCOc1ccc(NC(=O)c2nc(S(=O)(=O)Cc3ccccc3F)ncc2Cl)cc1` the figure was active: 11%; with `COc1cccc(C(=O)Nc2nnc(S(=O)(=O)N3CCCc4ccccc43)s2)c1`, active: 18%.
The same measure for `Cc1cccc(C)c1NC(=O)Cn1cc(C(=O)C2CC2)c2ccccc21`: inactive: 67%.
As for `Cc1nn(CCC(=O)Nc2cccc(C#N)c2)c(C)c1S(=O)(=O)N1CCCCC1`, the survival was inactive: 88%.
With `COc1ccc(OC)c(S(=O)(=O)NCCS(=O)(=O)N2CCN(c3ccccc3F)CC2)c1` the figure was inactive: 67%.
In the case of `CCS(=O)(=O)NCCc1csc2nc(-c3ccc(OC)cc3)nn12`, the survival was inactive: 76%.
